Source: PubChem BioAssay AID485344 (National Center for Advancing Translational Sciences (NCATS), 2010)
About 6,900 (2%) of roughly 340,000 compounds were called active. Rule as the data show it: active = inhibition above about 30%; inactive = below that, where a call was filed. The list shows a part of the results, in another mix than the full data. Where no call is shown, the source filed none.

molecular target: D(2) dopamine receptor (Homo sapiens) (UniProt P14416); assay: HTS Assay for Allosteric Antagonists of the Human D2 Dopamine Receptor: Primary Screen for Antagonists; conditions: HEK293 TREx D2 cells, calcium flux, dopamine EC80; at 10 µM; stronger effect = higher value; also: 0% is about no effect
Procedure, shortened: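 Measurement of antagonist activity uses fluorescent calcium dye in inducible HEK293 T-REx D2 cells: 10 s baseline, compound addition with 180 s read, EC80 dopamine addition with a further 180 s read.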

Sequence of UniProt P14416 (P14416 whole entry, looked up): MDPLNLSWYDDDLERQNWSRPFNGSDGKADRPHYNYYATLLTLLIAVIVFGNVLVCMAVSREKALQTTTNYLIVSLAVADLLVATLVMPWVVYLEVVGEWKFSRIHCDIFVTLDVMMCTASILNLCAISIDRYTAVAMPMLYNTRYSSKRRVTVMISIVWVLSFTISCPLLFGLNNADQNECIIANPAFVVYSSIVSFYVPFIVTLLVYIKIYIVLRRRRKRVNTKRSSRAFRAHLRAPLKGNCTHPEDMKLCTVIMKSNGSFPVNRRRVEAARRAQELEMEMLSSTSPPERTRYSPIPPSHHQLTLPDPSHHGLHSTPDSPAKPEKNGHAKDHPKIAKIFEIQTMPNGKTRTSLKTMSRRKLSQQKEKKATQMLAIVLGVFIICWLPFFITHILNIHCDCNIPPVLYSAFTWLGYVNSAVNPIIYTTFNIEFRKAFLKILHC

First: CCCC(=O)N(c1ccc2oc3c(c2c1)CCCC3)S(=O)(=O)c1cc(C)ccc1C
Second: CCC(=O)N1CCc2cc(Br)cc(S(=O)(=O)Nc3ccc(C)cc3C)c21
The inhibition of the first is higher: 14.2% for the first, -3.59% for the second.

Compared with CCCCNc1nc2c(c(=O)n(Cc3ccc(Cl)cc3)c(=O)n2C)n1C, COC(=O)c1ccc(CSc2nc3c([nH]c4ccccc43)c(=O)n2-c2ccc(Cl)cc2)o1 is higher in inhibition: -8.09% for the first, 17.9% for the second.

First: COc1cccc(CSc2nc3cc(C(=O)NC4CCCC4)ccc3c(=O)n2Cc2ccccc2)c1
Second: CCN(CC)CCNC(=O)c1ccc(Cn2c(SCc3ccccc3)nc3cccnc32)cc1
The inhibition of the first is higher: 8.64% for the first, -1.57% for the second.

Compared with Nc1nnc2c(n1)[nH]c1ccccc12, O=C(Nc1ccc2nn(-c3ccccc3)nc2c1)c1cc2ccccc2o1 is lower in inhibition: 10.5% for the first, -0.583% for the second.

Compared with COc1cccc(N2CCN(C(=O)c3ccc(Cn4c(=O)[nH]c5cc(OC)c(OC)cc5c4=O)cc3)CC2)c1, COc1ccc(CC(=O)N2CCc3cc(OC)c(OC)cc3C2COc2ccc(OC)cc2)cc1 (centres undefined) is higher in inhibition: -3.39% for the first, 20.4% for the second.

Compared with CC1CCc2nc3ncn(Cc4ccccc4C#N)c(=O)c3cc2C1 (centres undefined), COc1ccc2oc(=O)cc(CN3CCN(Cc4ccccc4)CC3)c2c1 is lower in inhibition: -7.95% for the first, -18.3% for the second.

First: O=C(c1ccc2c(c1)N(Cc1ccc(Cl)cc1)C(=O)c1ccccc1S2=O)N1CCOCC1 (centres undefined)
Second: CC(C)Oc1ccc(CNC(=O)CCCN2C(=O)c3cccnc3Oc3ccc(Cl)cc32)cc1
The inhibition of the first is lower: -15.4% for the first, -8.77% for the second.

Compared with Cc1cc(C)c2c(CC(=O)N3CCN(c4cccc(Cl)c4)CC3)coc2c1, Cc1ccc(C)c(NC(=O)c2cnn(-c3cccc(F)c3)c2C2CCN(C(=O)OC(C)(C)C)CC2)c1 is higher in inhibition: -12% for the first, 3.15% for the second.

Compared with CCc1ccc(CNc2ncnc3c2nc2n3CCCC2)cc1, CCc1cccc(NC(=O)Cn2c(=O)ccc3cc(S(=O)(=O)N4CCC(C)CC4)ccc32)c1 is higher in inhibition: -0.173% for the first, 14.8% for the second.

Going from CCOc1ccccc1N1CC(c2nc3ccccc3n2CCOc2ccccc2)CC1=O (centres undefined) to CCc1nc2ccccc2n1CCCCOc1ccc(C)cc1, the inhibition falls from 5.26% to -0.921%.

Compared with O=C(CSc1cn(CC(=O)N2CCOCC2)c2ccccc12)Nc1ccccc1F, CC(=O)c1ccc(NC(=O)Cn2cc(S(=O)(=O)Cc3cccc(Cl)c3)c3ccccc32)cc1 is lower in inhibition: 21.7% for the first, 1.49% for the second.

Compared with Cc1ccc(S(=O)(=O)Nc2ccc3c(c2)CCCN3C(=O)c2cccs2)cc1, CCN(c1ccccc1)S(=O)(=O)c1ccc(NC(=O)c2cc(=O)c3cc(C)cc(C)c3o2)cc1 is lower in inhibition: 3.47% for the first, -11.5% for the second.

Going from Cc1c(Cl)cccc1NC(=O)c1cnc2sc(N3CCOCC3)nn2c1=O to COc1ccc(OC)c2sc(N3CCN(C(=O)C(C)(C)C)CC3)nc12, the inhibition rises from -11.1% to 12.4%.

First: CCC(=O)N1c2ccccc2CC1C(=O)NCCc1ccccc1C (centres undefined)
Second: Cc1ccc(N2C(=O)CSC23C(=O)N(CC(=O)NCc2ccccc2)c2ccccc23)cc1C (centres undefined)
The inhibition of the first is higher: 12.2% for the first, -11.4% for the second.

First: CCOc1ccc(NS(=O)(=O)c2ccc(-c3cc(C)no3)s2)cc1
Second: CCOC(=O)c1scc(-c2ccccc2)c1S(=O)(=O)Nc1cc(OC)cc(OC)c1
The inhibition of the first is higher: 3.14% for the first, -12.2% for the second.

Compared with CCN(C(=O)c1cc2c(s1)-c1c(C)cccc1OC2)c1ccccc1F, COc1cc(-c2cc(OC)c3c(C)oc(C)c3c(=O)c2)ccc1OC(=O)c1ccccc1Cl is higher in inhibition: -0.648% for the first, -0.294% for the second.

Compared with CCC1CN(C(=O)N2CCC(C(=O)NCCN(CC)CC)CC2)c2cc(C)ccc2O1 (centres undefined), Cc1ccc2c(Sc3ccc(Cl)cc3)c(C(=O)N3CCC(C)CC3)[nH]c2c1 is higher in inhibition: 2.25% for the first, 9.04% for the second.

First: CCOc1cc(CNC(=O)c2sc3ncnc(N(C)C4CCCCC4)c3c2C)ccc1OC
Second: Cc1cccc(C)c1OCC(=O)NCC1(N(C)C)CCCCC1
The inhibition of the first is lower: -5.35% for the first, 1.19% for the second.

First: COCCCNC(=O)c1ccc(NC(=O)c2nsc3ccccc23)cc1
Second: COc1ccccc1CNC(=O)C1CCC(CNS(=O)(=O)c2ccc3c(c2)CCCC(=O)N3)CC1 (centres undefined)
The inhibition of the first is higher: 6.09% for the first, -3.51% for the second.

Going from COc1ccc(CNS(=O)(=O)c2cnc(N)nc2)c(OC)c1 to COc1cc(Cl)c(NC(=O)CCS(=O)(=O)c2cc3c(cc2Cl)NC(=O)CO3)c(OC)c1, the inhibition falls from 7.62% to 0.136%.

With Cc1sc2nc3ccc(N4CCCCC4)nn3c(=O)c2c1C the inhibition was active: 36.9%.
COc1ccc(S(=O)(=O)N2CCC(C(=O)NCc3ccc(C)cc3)CC2)cc1 was tested, and the inhibition was active: 34.2%.
For Cc1ccc(S(=O)(=O)CCC(=O)O)cc1C, the inhibition was active: 35.5%.
Cc1c(O)ccc(NC(=O)/C=C/c2ccccc2)c1C was tested, and the inhibition was active: 35%.
In the case of CC(=O)N1Cc2ccccc2C(C)CC12CCCC2 (centres undefined), the inhibition is reported as active: 31.2%.
For CCOc1ccc(S(=O)(=O)N2CCCCC2)cc1NC(=O)Cc1ccsc1, the inhibition was active: 33.9%.
CCCCn1c2ccccc2c2nnc(SCC(=O)NC3=NN=C(c4ccccc4)CS3)nc21 was tested, and the inhibition was active: 69.6%.
Brc1ccccc1OCCNCc1ccccc1 was tested, and the inhibition was active: 94%.
With C=CCc1cccc(/C=N/NC(=O)C[n+]2ccccc2)c1O the inhibition was active: 52.7%.
